Data: PMC2809015 (Biochemistry, 2009)

Molecular target: T1, HscA, Hsp70-class molecular chaperone of the isc operon (E. coli, UniProt P0A6Z1 1-616)
T1 sequence (looked up): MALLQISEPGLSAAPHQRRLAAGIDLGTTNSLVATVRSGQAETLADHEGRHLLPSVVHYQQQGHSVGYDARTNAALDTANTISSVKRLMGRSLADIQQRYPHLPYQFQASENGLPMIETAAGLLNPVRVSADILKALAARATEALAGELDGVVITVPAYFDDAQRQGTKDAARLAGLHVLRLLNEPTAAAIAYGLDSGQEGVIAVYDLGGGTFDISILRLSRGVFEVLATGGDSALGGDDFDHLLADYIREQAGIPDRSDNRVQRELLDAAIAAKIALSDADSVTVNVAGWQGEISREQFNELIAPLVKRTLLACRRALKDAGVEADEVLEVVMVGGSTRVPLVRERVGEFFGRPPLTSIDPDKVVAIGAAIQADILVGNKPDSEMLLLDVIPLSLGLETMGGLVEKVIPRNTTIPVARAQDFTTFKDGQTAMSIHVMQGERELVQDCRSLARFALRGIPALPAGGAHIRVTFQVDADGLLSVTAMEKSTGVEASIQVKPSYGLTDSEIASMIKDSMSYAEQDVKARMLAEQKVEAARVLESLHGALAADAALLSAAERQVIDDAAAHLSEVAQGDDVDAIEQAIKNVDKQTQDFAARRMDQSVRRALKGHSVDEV
Assay: molecular weight filtration assay

B1: E. coli thioredoxin (TrxA) (natural protein)
chain: not shown
- Kd: ≥ 500 µM
